Test results published in article PMC4336329 (PLoS ONE, 2015).
Hit rate of the full screen: of about 310,000 compounds, about 2,200 (0.71%) showed an effect of 50% or more. The effect is printed as a negative number. This is one part of the list.

Molecular target: human ether-à-go-go-related gene (hERG) potassium channel (human, UniProt Q12809)
Assay: primary screen, population patch clamp on CHO cells stably expressing hERG

Sequence of human ether-à-go-go-related gene (hERG) potassium channel (Q12809 whole entry, looked up): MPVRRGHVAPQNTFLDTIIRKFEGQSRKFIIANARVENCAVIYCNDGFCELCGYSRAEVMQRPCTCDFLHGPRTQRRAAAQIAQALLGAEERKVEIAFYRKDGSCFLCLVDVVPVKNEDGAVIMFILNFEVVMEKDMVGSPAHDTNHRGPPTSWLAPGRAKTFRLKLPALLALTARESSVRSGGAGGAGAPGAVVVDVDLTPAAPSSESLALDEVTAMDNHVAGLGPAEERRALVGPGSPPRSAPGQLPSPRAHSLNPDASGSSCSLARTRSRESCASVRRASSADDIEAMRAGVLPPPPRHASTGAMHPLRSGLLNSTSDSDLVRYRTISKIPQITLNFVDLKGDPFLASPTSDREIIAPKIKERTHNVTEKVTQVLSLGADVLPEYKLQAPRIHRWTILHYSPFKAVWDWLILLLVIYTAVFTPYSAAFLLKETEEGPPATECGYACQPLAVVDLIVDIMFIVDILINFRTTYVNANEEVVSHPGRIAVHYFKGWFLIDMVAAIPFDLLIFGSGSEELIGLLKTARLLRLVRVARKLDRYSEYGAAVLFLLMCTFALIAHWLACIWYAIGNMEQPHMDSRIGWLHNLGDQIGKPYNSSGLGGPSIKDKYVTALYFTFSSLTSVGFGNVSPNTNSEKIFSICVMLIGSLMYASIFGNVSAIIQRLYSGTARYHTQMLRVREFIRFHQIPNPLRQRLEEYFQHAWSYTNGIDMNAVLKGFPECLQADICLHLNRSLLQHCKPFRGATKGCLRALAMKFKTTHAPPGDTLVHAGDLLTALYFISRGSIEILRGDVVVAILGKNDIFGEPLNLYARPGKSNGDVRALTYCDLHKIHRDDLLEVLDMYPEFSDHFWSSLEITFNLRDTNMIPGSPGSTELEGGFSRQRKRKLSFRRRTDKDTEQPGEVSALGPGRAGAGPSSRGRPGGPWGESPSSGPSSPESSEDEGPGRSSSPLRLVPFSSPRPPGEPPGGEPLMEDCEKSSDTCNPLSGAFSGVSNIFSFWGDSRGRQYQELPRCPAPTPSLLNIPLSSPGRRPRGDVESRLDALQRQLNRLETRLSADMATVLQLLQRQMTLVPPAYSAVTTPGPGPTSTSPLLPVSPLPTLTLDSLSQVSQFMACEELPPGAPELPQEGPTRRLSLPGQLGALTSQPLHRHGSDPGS

Structure (SMILES) | hERG current change (%, negative = inhibition) at 1uM [%]
COc1cccc(Cn2c(OCC3CCCO3)nc3c2c(=O)n(C)c(=O)n3C)c1 (centres unmarked) | 0.0483
Cc1ccc(-c2nc3ccccc3c(=O)n2-c2ccc(O)cc2)cc1 | 10.4
CC(C)N(C=O)C1(C(=O)NC2CCCCC2)CCCCC1 | 1.56
CC(=O)Nc1ccc(S(=O)(=O)N(C)CC(=O)OC(C)C(=O)NC2CCCC2)cc1 (centres unmarked) | 10
CC1CCN(S(=O)(=O)c2ccc(S(=O)(=O)NCc3ccco3)cc2)CC1 | 5.3
Cc1ccccc1CNC(=O)c1ccc2nc(N3CCOCC3)sc2c1 | 6.49
CN(C)CCCNc1cc(-c2ccccc2)nc2cc(-c3cccc(F)c3)nn12 | 5
c1ccc(-c2nc(NCc3ccco3)c3ccccc3n2)nc1 | -19.6
CCOC(=O)C(C(C)C)C(N)Cc1ccc(F)cc1 (centres unmarked) | 4.84
CCC(OC(=O)c1ccco1)C(=O)NCc1ccco1 (centres unmarked) | 11.6
O=C(CCSc1ccc(Cl)cc1)c1cccs1 | 1.85
CN(CC(=O)Nc1ccc(F)cc1)C(=O)COC(=O)c1ccc(-c2ccccc2)cc1 | 8
Nc1nc(Nc2cccc(F)c2)nc(NCCO)c1[N+](=O)[O-] | 10.8
Cl.O=C(NCC(c1ccc(F)cc1)N1CCOCC1)c1ccc(Br)o1 (centres unmarked) | 5.42
Cc1csc(=N)n1-c1ccc(Cl)cc1 | 4.16
COc1ccc(CNC(=O)C23CN(Cc4ccccc4)CC2C(c2ccc([N+](=O)[O-])cc2)=NO3)cc1 (centres unmarked) | -2.91
CCOC(=O)c1c(C)c(C(=O)NCCN2CCOCC2)c(C)n1CC | 4.39
O=C(COn1nnc2ccccc21)N1CCN(Cc2ccccc2)CC1 | 2.38
CCCN(CCC)CCCNC(=O)CNC(=O)c1nn(-c2ccc(OC)cc2)c(=O)c2ccccc12 | -4.95
COc1cc(-c2nnc(SCc3cccnc3)n2C)cc(OC)c1O | 5.15
O=C(C(Cl)Cl)N1c2ccccc2OCC1c1ccccc1 (centres unmarked) | 4.21
COc1ccccc1CN1CC(C(=O)NCc2ccc(N3CCCC3=O)cc2)CCC1=O (centres unmarked) | 19.4
COc1ccc(CNC(=O)C2CCCN(S(=O)(=O)N3CCC(C)CC3)C2)c(OC)c1 (centres unmarked) | 36.2

Structure (SMILES) | hERG current change (%, negative = inhibition) at 1uM [%]
CCCCn1c(SCC(=O)NCc2ccco2)nnc1-c1ccoc1C | 9.53
O=C(CC12CC3CC(CC(C3)C1)C2)N1CCN(S(=O)(=O)c2cccs2)CC1 | 19.3
COc1ccc(C2=NCCn3nc4cc([N+](=O)[O-])ccc4c32)cc1 | 5.39
CCN(CC)CCCn1c(SCC(=O)Nc2cccc(F)c2)nnc1-c1ccoc1C | -63
O=C(Nc1ccccc1C(F)(F)F)c1cc(S(=O)(=O)N2CCC3(CC2)OCCO3)ccc1F | -7.86
Cc1cc(SCC2=NNC(=O)C2)c(Cl)cc1Cl | 13.5
Cc1ccc2c(c1)CC1(CN2C)C(=O)NC(=O)N(c2cc(C)ccc2C)C1=O (centres unmarked) | -0.259
CCOc1cc(CNn2cn[nH]c2=S)cc(Cl)c1OCc1ccccc1F | 11.1
OCC[C@H]1C[C@@H](O)[C@H](O)[C@@]2(CCc3ccccc3O2)O1 | 12.2
C/C(=N\Nc1ncc(Cl)cc1Cl)c1ccc(OC(F)F)cc1 | -8.03
O=C(Nc1ccc(F)cc1)C1CC2CCC1C2 (centres unmarked) | 12.7
O=C(CNC(=O)c1ccccc1F)NC1CCN(Cc2ccccc2)CC1 | 13.4
CC(=O)c1ccc([C@@H]2C[C@]34CN(Cc5cccc(C(F)(F)F)c5)S(=O)(=O)[C@H]3C[C@H]2O4)cc1 | 2.62
CCOc1ccccc1NC(=O)CCCc1nc2ccccc2c(=O)[nH]1 | 7.17
CC1CCN(c2nc3ccccc3nc2C(C#N)C(=O)NC2CCCCC2)CC1 (centres unmarked) | 7.85
O=C(Nc1ccccc1)/C(=C\c1ccco1)NC(=O)c1ccco1 | 4.63
CCCOc1ccc(C(=O)NNC(=S)NC(=O)CC)cc1 | 9.23
Cc1ccc(-n2c(-c3cc(C)n(C)n3)n[nH]c2=S)cc1 | 20.3
NC(=O)CSc1cn(Cc2ccccc2)c2ccccc12 | 10.2
O=C(O)c1cc(C(=O)O)cc(N2C(=O)CSC2=S)c1 | 12.2
COC1(OC)C=CC(=O)C=C1NC(=O)c1ccccc1OC(C)=O | 4.68
CC1CCc2nc(NC(=O)CCSc3ccccc3)sc2C1 (centres unmarked) | 4.84
C/C(=N\NC(=O)c1cc(C)[nH]n1)c1ccc(-c2ccccc2)cc1 | 13.7

Structure (SMILES) | hERG current change (%, negative = inhibition) at 1uM [%]
COc1cc(C(=O)NCC(=O)OCC(=O)c2ccc[nH]2)cc(OC)c1OC | 15.7
Cc1cccc(-n2nnc3c(=O)n(Cc4ccccn4)cnc32)c1 | 10.1
COc1ccc(NC(=O)CN(c2ccc(C)cc2)S(=O)(=O)c2c(C)nn(C)c2C)cc1OC | 13.5
Cc1nn(CC(=O)NC2CCCC2)c(C)c1[N+](=O)[O-] | 11
COc1ccc(CS(=O)(=O)/C(Cl)=C(/Cl)C(=O)Nc2ccc(OC)nc2)cc1 | 12.5
O=C(NCC1CCCO1)[C@@H]1CSC2c3ccccc3C(=O)N21 (some centres unmarked) | 5.34
CN(C)c1ccc(CN(C(=O)c2cc3ccccc3oc2=O)C2CCS(=O)(=O)C2)cc1 (centres unmarked) | 8.09
Cn1c(SCC(=O)O)nnc1-c1ccc2ncccc2c1 | 10.7
CCN(CC)S(=O)(=O)c1ccc2c(c1)nc(CCC(=O)OCC(=O)Nc1cc(OC)cc(OC)c1)n2C | -12.7
Cl.c1ccc2c(c1)nc(N1CCCCC1)c1ccccc12 | 5.96
CC/C(=N/NC(=O)c1ccc(Br)cc1)c1ccc(OCCN2CCOCC2)cc1 | -3.84
COCCn1c(SCC(=O)Nc2ccc(NC(C)=O)cc2)nc2ccccc2c1=O | 13.7
Cc1cc(NC(=O)CCCC(=O)N(c2ccccc2)C(C(=O)NC2CCCCC2)c2cccs2)no1 (centres unmarked) | -7.59
CCNC(=O)COC(=O)COc1ccc(Cl)cc1C | 9.46
c1ccc2c(c1)nc1n2CC2CON(C3CCCCC3)C12 (centres unmarked) | 3.37
CC(=O)NCc1c(Cl)cccc1-n1cccc1 | 15.4
C/C(=N\Nc1nc2c(s1)CCCC2)c1ccc(Cl)cc1.Cl | 6.26
CCN(Cc1cc2ccccc2[nH]c1=O)C(=O)c1cccnc1 | 4.01
COc1cccc(NC(C(=O)Nc2cccc(C(C)=O)c2)c2ccccc2)c1 (centres unmarked) | 9.07
Cc1ccc(S(=O)(=O)Nc2cccnc2)cc1C | 9.89
COc1cccc(NC(=O)CN(C)C(=O)CNC(=O)c2ccc(Oc3ccccc3)cc2)c1 | 1.28
COc1cc([N+](=O)[O-])ccc1NC(=O)COC(=O)c1ccc(NC(N)=O)cc1 | 11.2
Cc1oc(-c2ccccc2Cl)nc1CS(=O)CC(=O)N1CCN(c2ccccc2)CC1 (centres unmarked) | 7.95

Structure (SMILES) | hERG current change (%, negative = inhibition) at 1uM [%]
CC1CCCCN1C(=O)CSc1nnc(-c2ccccc2F)o1 (centres unmarked) | 11.1
COc1ccc(C2C(C#N)=C(N)OC3=C2C(=O)CC(C)(C)C3)cc1OC (centres unmarked) | 7.6
CC(C)N(CC#CCC1(O)c2ccccc2-c2ccccc21)CCO | 8.43
CC(=O)C(/C=N/c1ncc(C(F)(F)F)cc1Cl)=C(\C)O | 8.52
CCCCc1nnc(NC(=O)CN2C(=O)c3ccccc3C2=O)s1 | -2.77
O=C(NCc1cccnc1)C1c2ccccc2C(=O)N1C1CCCCCCC1 (centres unmarked) | 6.62
CCCN1C(=O)C(Cc2nc3ccccc3c(=O)n2-c2ccccc2)c2cc(C)ccc21 (centres unmarked) | 1.98
Cc1ccccc1N=C1Nc2ccccc2CS1 | 21.2
Cc1ccc(CSc2ccc(-c3ccc4c(c3)OCO4)nn2)cc1 | 12.7
CCOC(=O)c1sc(SC)nc1N | 6.66
O=C(Nc1ccccc1C(=O)Nc1ccccc1)c1ccccc1Br | 12.3
COc1ccc(C(CNC(=O)c2c(C)nn(Cc3ccccc3)c2Cl)N2CCOCC2)cc1 (centres unmarked) | 7.13
CC(NC(=O)OC(C)(C)C)C(=O)Oc1ccc2ccc(=O)oc2c1 (centres unmarked) | 12.8
CCn1c(=O)n(CC)c2cc(N3CCCC3)c(NC(=O)c3ccc(F)cc3)cc21 | 0.988
CC1=C(CC(=O)O)c2cc(F)ccc2/C1=C\c1ccc(S(C)=O)cc1 (centres unmarked) | 0.294
Cc1cc(NC(=O)c2ccco2)ccc1-n1cnnn1 | 3.85
Cc1nnc(SCc2cc(=O)[nH]c(N3CCCCC3)n2)s1 | 8.77
CCCCCC1CCC(c2ccc(C(N)=O)cc2)CC1 (centres unmarked) | 9.37
O=c1c2ccccc2cnn1Cc1n[nH]c(=S)n1-c1cc(Cl)cc(Cl)c1 | 9.86
Cc1cccc(-n2c(-c3ccc(Br)o3)n[nH]c2=S)c1 | 13
